Test results: the BET-seq Pho4 binding data (Le et al. 2018)
The list shows a part of the results. Values were computed here from the reads of four pooled replicates and scatter widely.

target: T1, Pho4 (S. cerevisiae) (UniProt P07270); experiment: relative binding free energy (BET-seq); higher = weaker binding; details: reference: library average
T1 sequence: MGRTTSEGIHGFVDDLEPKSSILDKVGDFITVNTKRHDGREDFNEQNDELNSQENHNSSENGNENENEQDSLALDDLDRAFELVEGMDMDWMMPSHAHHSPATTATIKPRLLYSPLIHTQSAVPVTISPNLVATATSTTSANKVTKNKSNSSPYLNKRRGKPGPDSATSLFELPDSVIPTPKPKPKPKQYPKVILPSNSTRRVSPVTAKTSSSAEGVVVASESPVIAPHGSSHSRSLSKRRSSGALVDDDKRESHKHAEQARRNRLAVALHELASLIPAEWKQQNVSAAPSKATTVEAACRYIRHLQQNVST

| Sequence | relative binding free energy [kcal/mol] |
| --- | --- |
| TTGCTCACGTGTGGTG | 0.33 |
| TGTATCACGTGAAGAG | 0.26 |
| GAGTACACGTGGTTGA | 0.11 |
| GTGTGCACGTGTAGTG | 0.05 |
| TTGGTCACGTGGACGG | 0.18 |
| ATTATCACGTGTGTCA | 0.12 |
| ATTCGCACGTGAGCGT | 0.26 |
| AATGCCACGTGTTGTT | -0.04 |
| ACGTGCACGTGGGCGT | -0.21 |
| ACGTCCACGTGTTTGG | 0.12 |
| TAATTCACGTGATTTT | 0.38 |
| GTGCTCACGTGTCTTT | 0.3 |
| ATCTTCACGTGGTTAT | 0.14 |
| ATTTTCACGTGGAGCA | 0.29 |
| CGTATCACGTGGGTCT | 0.02 |
| ATAGCCACGTGTGTGT | -0.15 |
| GTGTCCACGTGATGGG | 0.33 |
| TTAGACACGTGGACGT | 0.11 |
| TGTAGCACGTGGTGAT | -0.1 |
| GTCTTCACGTGTAGTA | 0.35 |
| AGGGCCACGTGTGAGA | 0.04 |
| TGTTACACGTGGATGC | 0.12 |
| TTTCGCACGTGTTGGC | 0.14 |
| GAATTCACGTGTGCTT | 0.46 |
| GATGTCACGTGTATGA | 0.02 |

| Sequence | relative binding free energy [kcal/mol] |
| --- | --- |
| TGAAGCACGTGGTTTG | -0.1 |
| GAATTCACGTGGTAGA | 0.27 |
| TTAGACACGTGTTAAG | -0.05 |
| TCGGGCACGTGGTGCT | -0.2 |
| CTTGTCACGTGTGAGA | 0.21 |
| GGCGGCACGTGGTTAG | -0.02 |
| GGGCGCACGTGTTAGT | -0.02 |
| TCATTCACGTGGTGGA | 0.17 |
| TAAATCACGTGGGTGC | -0.06 |
| CTTCACACGTGGGTGG | -0.12 |
| GTGTGCACGTGGTAGG | -0.04 |
| ACAGTCACGTGTTGGT | 0.12 |
| AACTTCACGTGGGGGC | 0.15 |
| TTTTGCACGTGGAGAC | -0.02 |
| AAAGGCACGTGGTGCT | -0.08 |
| GGTTTCACGTGTACGC | 0.44 |
| GGTGTCACGTGTGGAT | 0.23 |
| GGGGACACGTGGACGT | 0.03 |
| TATAACACGTGGTTTT | -0.04 |
| TAGTACACGTGGTTAT | 0.07 |
| ATAAACACGTGGATTG | 0.08 |
| TCGTGCACGTGTTAGG | 0.02 |
| ATGTGCACGTGGTGAG | -0.01 |
| CTAGGCACGTGGTTTA | -0.14 |
| GCCGGCACGTGTGGAT | 0.12 |

| Sequence | relative binding free energy [kcal/mol] |
| --- | --- |
| AACGGCACGTGATGGG | 0.06 |
| TTCTTCACGTGGTAAT | 0.33 |
| TGGGCCACGTGTGTAA | -0.21 |
| GATCGCACGTGTTTGG | 0.03 |
| GCGGACACGTGGGCTG | -0.12 |
| GATGTCACGTGCATTG | 0.21 |
| TAATTCACGTGGGCGT | 0.16 |
| TAGGTCACGTGGAGAA | 0.2 |
| TCGGGCACGTGGTGGG | -0.18 |
| CTTGGCACGTGATTTG | -0.02 |
| ATCGGCACGTGGTGGG | -0.11 |
| CTTAACACGTGGTGTT | -0.15 |
| GAGTGCACGTGTGGCA | 0.19 |
| TTTAGCACGTGGTCGG | -0.26 |
| ATGTCCACGTGGAGGG | 0.06 |
| GTTCTCACGTGCGGTT | 0.3 |
| GTACTCACGTGATTTG | 0.33 |
| GTTAACACGTGTACTT | 0.08 |
| ACGTTCACGTGGTTTG | 0.03 |
| CGTGTCACGTGAGGCT | 0.13 |
| TTTAACACGTGTCGGC | 0.08 |
| TGCGTCACGTGAGTAG | 0.2 |
| ATTGGCACGTGTGGGC | -0.08 |
| AGATTCACGTGGATAG | 0.15 |
| TAGGTCACGTGTTTCA | 0.09 |

| Sequence | relative binding free energy [kcal/mol] |
| --- | --- |
| TAGGGCACGTGCATAT | -0.22 |
| ATTAACACGTGGTGGT | -0.11 |
| TTTTACACGTGGTACA | 0.01 |
| GTGTTCACGTGGAGTA | 0.23 |
| GATTGCACGTGATGGA | 0.28 |
| TTACACACGTGTTGTT | -0.11 |
| TGTAGCACGTGGAGGA | -0.02 |
| AGGGTCACGTGTAAGA | 0.25 |
| TAAGTCACGTGATGTG | 0.19 |
| TTTTGCACGTGTTTGC | 0.05 |
| GATGCCACGTGGGGAT | -0.18 |
| GAGTGCACGTGGGGGG | -0.1 |
| CTTGTCACGTGTGGAT | 0.29 |
| TTATTCACGTGGGGCA | 0.06 |
| GGTTGCACGTGCGAGG | -0.06 |
| TTGTACACGTGTTGTT | 0.12 |
| AGAGGCACGTGAGTTG | 0.08 |
| ACTGGCACGTGTTTTT | -0.17 |
| TTGCGCACGTGTAGTT | -0.05 |
| TTTGACACGTGTGACA | 0.12 |
| TGAGTCACGTGGGTAG | -0.1 |
| TTATGCACGTGGAGTG | -0.14 |
| TTCCGCACGTGAAGGT | 0.25 |
| TATTACACGTGTGTTA | 0.14 |
| ATTCTCACGTGTAAGT | 0.13 |

| Sequence | relative binding free energy [kcal/mol] |
| --- | --- |
| ATATTCACGTGTAAAG | 0.15 |
| GAGTTCACGTGGTGGC | 0.4 |
| ATTTACACGTGGTATG | 0.01 |
| GATTGCACGTGCTAGG | 0.01 |
| AGGTTCACGTGTAAAG | 0.31 |
| GGTCCCACGTGTTTTG | 0.05 |
| ATGACCACGTGTGGCG | 0.04 |
| GTTGGCACGTGAGTCT | 0.16 |
| TTTTACACGTGCTGAT | -0.06 |
| GTATACACGTGTTACG | 0.08 |
| TGAGGCACGTGGGACT | -0.15 |
| TAGTACACGTGTTATT | -0.05 |
| GTGGGCACGTGCTGGA | -0.09 |
| AGTTCCACGTGTGGGC | 0.12 |
| GAGTGCACGTGCTATG | 0.14 |
| ATAAGCACGTGGGTTC | -0.31 |
| GAGTTCACGTGCTTTT | 0.21 |
| TATAACACGTGTTGGA | -0.04 |
| GTAGTCACGTGGGATA | 0.01 |
| GAGCGCACGTGGTTGT | -0.09 |
| TGATACACGTGGTATA | 0 |
| AGGAGCACGTGTCGTG | -0.11 |
| AGTCTCACGTGGTGGC | 0.28 |
| ATATGCACGTGCGGTT | -0.01 |
| AGTGTCACGTGTATGA | 0.09 |

| Sequence | relative binding free energy [kcal/mol] |
| --- | --- |
| CAGGGCACGTGTTTTG | 0 |
| GTTGTCACGTGGGCTC | -0.05 |
| TATAACACGTGGTAGA | -0.02 |
| GGGTTCACGTGGGCTC | 0.2 |
| TCGGCCACGTGTAGGG | -0.16 |
| GAAATCACGTGGGGGG | 0.05 |
| GAGTGCACGTGATCGT | 0.26 |
| GGTTGCACGTGTATAT | 0.09 |
| AATGTCACGTGTCGTT | 0.19 |
| TGTATCACGTGCCGGT | 0.03 |
| AGATTCACGTGATGGC | 0.32 |
| CGTAGCACGTGTGTGG | -0.13 |
| GGTACCACGTGGTATT | 0 |
| AGTTGCACGTGGATTC | 0.05 |
| GGGAACACGTGGGGGC | 0 |
| CGCTTCACGTGGGGTT | 0.14 |
| CAGGTCACGTGTGGTA | 0.16 |
| AGAGGCACGTGCTGCG | -0.19 |
| TTTGACACGTGCGATG | -0.16 |
| TAATACACGTGGTGTT | -0.12 |
| AGGTTCACGTGGAAGT | 0.35 |
